The values below come from ChEMBL document CHEMBL4888484, “Replenishing the malaria drug discovery pipeline: Screening and hit evaluation of the MMV Hit Generation Library 1 (HGL1) against asexual blood stage Plasmodium falciparum ,using a nano luciferase reporter read-out” (2022).

The subject of the assay is Plasmodium falciparum. As to the kind of experiment: Primary screen in NF54 nanoGlo assay, in single point, at 2uM, 72h; a lower Z score goes with more inhibition. It counts as functional, Erythrocyte. The note with it: timepoint 72 hour.

Among all 150,000 compounds or so, about 540 (0.36%) showed an effect of 50% or more. This is one part of the list.

For orientation: % Inhibition means the drop in the measured response relative to a control, in per cent. `COc1ccc(COCCCNc2ncc(C)cn2)cc1`: the “% Inhibition” value is listed as -4% and the Z score was determined as 0.57.
For `O=C(Nc1ccc2nc3n(c(=O)c2c1)CCCC3)[C@@H]1COc2ccccc2O1` the same measures were 2% and -0.38.
The like results for `Cc1ccc(CN2C[C@@H](C(=O)O)C[C@@H](C(=O)NCc3cccnc3)C2)cc1` were, in that order, -9% and 1.38.
Consider `CC(C)Cn1ncnc1CN(C)C1(CO)CCOCC1`, for which the “% Inhibition” value came to 1% and the Z score was -0.1.
For `CN(C)C(=O)c1nnsc1NC(=O)Nc1ccncc1` the same measures were -5% and 0.72.
Turning to `Cc1ccc(-n2c(C)c(CNC[C@H](C)c3ccccc3)c(C(=O)O)c2C)cc1`, the “% Inhibition” value is 7% and the Z score was -0.92.
For `COc1ccc(-c2nnc(C)o2)cc1NC(=O)c1ccnn1C(C)C` the same measures were -14% and 1.8.
The like results for `COCc1c(C(=O)N2CC3CCC2C3)c(=O)cc(C)n1CCCc1ccccc1` (centres undefined) were, in that order, -15% and 2.67.
Take `COc1cc(C(=O)N2CCCC[C@@H]2CCN2CCCCC2)cc(OC)c1OC`: the “% Inhibition” value was -11% and the Z score is on record as 1.43.
For `CCC(C)(C)NC(=O)Nc1cccnc1` the same measures were -4% and 0.55.
For `NC(=O)CN1C(=O)[C@]2(CCN(C(=O)C3CCOCC3)C2)c2ccccc21` the same measures were 3% and -0.32.
The like results for `COc1cc(F)c(C(C)NC2C[C@@H]3COC[C@H]23)cc1OC` (some centres undefined) were, in that order, -1% and 0.15.
Consider `O[C@@H](CNC1CCN(C2CCC2)CC1)c1ccc(F)cc1Cl`, for which the “% Inhibition” value came out at 4% and the Z score is listed as -0.73.
The like results for `O=C(Nc1cc([C@@H]2CCCO2)n[nH]1)C1CCN(C2CC2)CC1` were, in that order, -12% and 1.16.
For the molecule `CS(=O)(=O)N1C[C@H]2CC[C@@H](C1)N(CCCC(=O)c1ccc(F)cc1)C2`, the “% Inhibition” value is -7% and the Z score was 1.02.
With `CCc1cccc(C)c1-n1nnnc1[C@](C)(CC)N1CCN(C(=O)c2ccco2)CC1`, the “% Inhibition” value is recorded as 3% and the Z score is recorded as -0.36.
Take `NC(=O)CC(=O)NC12CCC(C(F)(F)F)(CC1)CC2`: the “% Inhibition” value is on record as -6% and the Z score came to 0.81.
For `O=C(C1CCCC1)N1CCN(Cc2ccc3c(c2)OCO3)CC1` the same measures were 4% and -0.51.
The like results for `COCCON1C(=O)C[C@H](C(=O)OC)C12CCN(C(=O)c1cccc(F)c1F)CC2` were, in that order, -12% and 2.03.
As to `COc1ccc(F)c(CN2CCCN(S(=O)(=O)N3CCCCC3)CC2)c1F`, the “% Inhibition” value was -1% and the Z score is 0.14.
As for `Cc1cc(NCc2cn3cccnc3n2)ccc1-n1nnnc1C(C)C`, the “% Inhibition” value was -13% and the Z score is 1.66.
For `CCC(CC)C(=O)N1CCN(c2cc(N3CCOCC3)ncn2)CC1` the same measures were -10% and 0.91.
The like results for `COc1ccccc1-c1cc2nc(C)cc(N3CCN(Cc4ccccc4)CC3)n2n1` were, in that order, -10% and 1.85.
For `O=C1CC[C@H](NS(=O)(=O)Cc2cccc(C(F)(F)F)c2)CN1` the same measures were -6% and 0.96.
Take `OCC1CN(c2ccnc(Cc3ccccc3)n2)C1`: the “% Inhibition” value is -9% and the Z score is recorded as 1.12.
For `C[C@H](NC(=O)c1cccc(N(C)C)c1)C(N)=O`, the “% Inhibition” value is given as 4% and the Z score is -0.62.
In the case of `CN1CCCN(c2ccc(S(=O)(=O)C(F)F)cc2)CC1`, the “% Inhibition” value was -35% and the Z score was determined as 4.08.
Take `CC[C@@H](c1ccc(Br)cc1)N(C)CCn1cnnc1`: the “% Inhibition” value is reported as -4% and the Z score was determined as 0.43.
For `CS(=O)(=O)c1cnn(Cc2cc(Cl)c3c(c2)OCCCO3)c1` the same measures were -8% and 0.88.
Turning to `Cc1cc(C(=O)Nc2cccc(-c3nnco3)c2)no1`, the “% Inhibition” value is on record as -8% and the Z score was 1.06.
The like results for `Cc1cc(C(=O)Nc2sc(Cc3ccccc3)cc2C(N)=O)no1` were, in that order, -21% and 2.91.
With `CCc1ccc(CC(=O)N2CCC[C@]3(CCC(=O)N(C4CC4)C3)C2)cc1`, the “% Inhibition” value is 13% and the Z score is recorded as -1.69.
The like results for `CN(Cc1nnn(CC(=O)c2ccnn2C)n1)C(=O)c1ccccc1` were, in that order, -3% and 0.41.
The like results for `O=C(COc1ccccc1)N1CC(OCC(F)(F)F)C1` were, in that order, 0% and -0.02.
The like results for `C=CCN(Cc1ccc(F)cc1)C(=O)c1ccc(CN2CCN(C)CC2)o1` were, in that order, 16% and -2.04.
As for `O=C(C1CCCCC1C(=O)N1CCCC(O)C1)N1CCCC1` (centres undefined), the “% Inhibition” value is reported as -7% and the Z score is 1.3.
For `CC(C)OCc1ccc(CNCc2c[nH]nc2-c2cccnc2)cc1` the same measures were -7% and 1.12.
For `C[C@H]1CCN(C(=O)c2ncoc2-c2ccco2)CC12CCC2` the same measures were 8% and -1.39.
The like results for `C[C@H]1CCCCN1c1nc(-c2ccccc2)nc2nc(-c3ccccc3)oc12` were, in that order, -14% and 1.86.
Regarding `O=C(CCn1cnc(-c2ccccc2)c1-c1ccccc1)N[C@H]1CCS(=O)(=O)C1`, the “% Inhibition” value is on record as -3% and the Z score was found to be 0.64.
For `Cn1cc2c(n1)c(=O)n(Cc1ccc(F)cc1)c1nn(Cc3cccc(Cl)c3)c(=O)n21` the same measures were -2% and 0.3.
The like results for `CC(=O)NCC(=O)N1CCC[C@H](c2[nH]ncc2-c2ccc(C)cc2)C1` were, in that order, -10% and 1.44.
